{
  "source": "paper PMC6323126",
  "key": {"[1]": {"target": "T1, MST1 (endogenous) (human (endogenous in HEK293FT)) (UniProt Q13043)", "T1 sequence": "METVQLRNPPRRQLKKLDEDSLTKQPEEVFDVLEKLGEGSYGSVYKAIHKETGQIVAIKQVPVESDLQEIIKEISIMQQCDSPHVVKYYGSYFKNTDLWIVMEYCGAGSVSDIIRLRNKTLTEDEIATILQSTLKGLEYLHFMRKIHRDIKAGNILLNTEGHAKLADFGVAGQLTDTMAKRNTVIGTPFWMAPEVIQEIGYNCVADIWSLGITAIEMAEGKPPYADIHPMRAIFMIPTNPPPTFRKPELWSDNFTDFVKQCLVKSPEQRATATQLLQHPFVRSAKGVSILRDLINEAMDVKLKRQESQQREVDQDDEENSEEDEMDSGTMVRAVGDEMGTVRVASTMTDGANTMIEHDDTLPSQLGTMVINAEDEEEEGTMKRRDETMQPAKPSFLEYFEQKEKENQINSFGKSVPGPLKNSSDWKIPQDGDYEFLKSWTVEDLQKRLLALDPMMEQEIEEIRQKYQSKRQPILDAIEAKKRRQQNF", "test": "co-IP; endogenous proteins, HEK293FT cells at high (80%) and low (10%) cell density; immunoprecipitation of STRN3 or MST1; immunoblot"}, "[2]": {"target": "T2, Flag-tagged STRN3 (wildtype, in cells) (human) (UniProt Q13033)", "T2 sequence": "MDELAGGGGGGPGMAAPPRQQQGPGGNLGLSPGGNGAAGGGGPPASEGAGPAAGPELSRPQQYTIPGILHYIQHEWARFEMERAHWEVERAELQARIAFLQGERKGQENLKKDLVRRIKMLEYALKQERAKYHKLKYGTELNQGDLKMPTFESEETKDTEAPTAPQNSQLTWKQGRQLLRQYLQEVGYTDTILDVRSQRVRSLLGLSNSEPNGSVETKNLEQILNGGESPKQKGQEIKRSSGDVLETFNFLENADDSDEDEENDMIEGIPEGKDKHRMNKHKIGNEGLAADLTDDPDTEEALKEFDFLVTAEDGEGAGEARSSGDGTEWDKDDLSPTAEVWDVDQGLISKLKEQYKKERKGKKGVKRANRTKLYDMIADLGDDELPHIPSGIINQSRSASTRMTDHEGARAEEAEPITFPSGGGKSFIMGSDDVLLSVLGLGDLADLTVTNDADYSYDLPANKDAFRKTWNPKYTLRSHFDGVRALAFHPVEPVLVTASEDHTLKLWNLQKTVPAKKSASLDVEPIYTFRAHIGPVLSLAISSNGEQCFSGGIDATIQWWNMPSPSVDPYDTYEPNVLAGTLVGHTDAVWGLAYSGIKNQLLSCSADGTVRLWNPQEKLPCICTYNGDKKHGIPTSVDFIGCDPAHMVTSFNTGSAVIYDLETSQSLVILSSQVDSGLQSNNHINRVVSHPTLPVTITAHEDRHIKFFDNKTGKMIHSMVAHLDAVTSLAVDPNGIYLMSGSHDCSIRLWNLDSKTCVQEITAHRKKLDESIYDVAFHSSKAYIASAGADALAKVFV", "test": "co-IP; HEK293FT cells transfected with tagged plasmids, lysed 24 h later in RIPA buffer; immunoprecipitation with indicated antibodies and Protein A/G beads; immunoblot"}, "[3]": {"target": "T3, MBP-tagged STRN3 fragment (residues 64–341) (human) (UniProt Q13033)", "T3 sequence": "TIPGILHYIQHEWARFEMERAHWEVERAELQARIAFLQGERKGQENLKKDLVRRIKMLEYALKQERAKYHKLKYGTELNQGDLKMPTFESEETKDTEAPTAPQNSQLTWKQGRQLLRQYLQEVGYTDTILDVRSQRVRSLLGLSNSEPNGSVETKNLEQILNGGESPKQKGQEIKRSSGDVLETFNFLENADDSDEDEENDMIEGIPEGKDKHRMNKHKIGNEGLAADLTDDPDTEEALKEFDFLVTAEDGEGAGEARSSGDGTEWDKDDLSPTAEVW", "test": "pull-down; MBP pulldown: MBP-tagged protein, partner and amylose resin mixed at 4 °C for 1 h in 20 mM HEPES (pH 7.5), 100 mM NaCl; eluted with 20 mM maltose; SDS-PAGE, Coomassie staining; both purified"}, "[4]": {"target": "T4, Flag-tagged SLMAP (wildtype, in cells) (human) (UniProt Q14BN4)", "T4 sequence": "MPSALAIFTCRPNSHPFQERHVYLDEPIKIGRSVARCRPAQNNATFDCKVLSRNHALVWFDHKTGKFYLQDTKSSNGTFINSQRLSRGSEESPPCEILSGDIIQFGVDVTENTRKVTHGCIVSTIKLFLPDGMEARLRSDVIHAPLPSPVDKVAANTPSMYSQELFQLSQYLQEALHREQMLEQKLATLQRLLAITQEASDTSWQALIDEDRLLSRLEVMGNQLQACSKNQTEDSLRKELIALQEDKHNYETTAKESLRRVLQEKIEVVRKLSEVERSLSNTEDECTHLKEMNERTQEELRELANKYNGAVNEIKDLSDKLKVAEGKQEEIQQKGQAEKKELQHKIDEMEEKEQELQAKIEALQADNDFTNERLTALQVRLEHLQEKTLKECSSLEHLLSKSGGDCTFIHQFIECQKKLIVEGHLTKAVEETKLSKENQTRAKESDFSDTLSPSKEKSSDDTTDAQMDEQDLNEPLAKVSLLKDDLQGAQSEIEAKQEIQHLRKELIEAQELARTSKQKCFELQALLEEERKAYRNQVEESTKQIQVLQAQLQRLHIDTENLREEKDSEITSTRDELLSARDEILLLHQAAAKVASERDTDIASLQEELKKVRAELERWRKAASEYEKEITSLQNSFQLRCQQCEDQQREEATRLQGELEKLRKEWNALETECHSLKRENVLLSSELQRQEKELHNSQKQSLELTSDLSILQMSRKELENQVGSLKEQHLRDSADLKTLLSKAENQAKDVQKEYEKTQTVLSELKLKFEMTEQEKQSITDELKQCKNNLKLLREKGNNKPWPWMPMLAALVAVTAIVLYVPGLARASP", "test": "co-IP; HEK293FT cells transfected with tagged plasmids, lysed 24 h later in RIPA buffer; immunoprecipitation with indicated antibodies and Protein A/G beads; immunoblot"}},
  "note": "Results are given in words; binding and its absence hold for the method and conditions named. For some assays here: In cells and extracts the contact can be indirect. Some results given as binding are weak or reduced against the parent protein; the word gives no strength. For some assays here: Where a sequence is shown, tags or fusion partners need not be part of it.",
  "data": [
    {"binder": "STRN3 (endogenous) (protein, UniProt Q13033 1-797) MDELAGGGGGGPGMAAPPRQQQGPGGNLGLSPGGNGAAGGGGPPASEGAGPAAGPELSRPQQYTIPGILHYIQHEWARFEMERAHWEVERAELQARIAFLQGERKGQENLKKDLVRRIKMLEYALKQERAKYHKLKYGTELNQGDLKMPTFESEETKDTEAPTAPQNSQLTWKQGRQLLRQYLQEVGYTDTILDVRSQRVRSLLGLSNSEPNGSVETKNLEQILNGGESPKQKGQEIKRSSGDVLETFNFLENADDSDEDEENDMIEGIPEGKDKHRMNKHKIGNEGLAADLTDDPDTEEALKEFDFLVTAEDGEGAGEARSSGDGTEWDKDDLSPTAEVWDVDQGLISKLKEQYKKERKGKKGVKRANRTKLYDMIADLGDDELPHIPSGIINQSRSASTRMTDHEGARAEEAEPITFPSGGGKSFIMGSDDVLLSVLGLGDLADLTVTNDADYSYDLPANKDAFRKTWNPKYTLRSHFDGVRALAFHPVEPVLVTASEDHTLKLWNLQKTVPAKKSASLDVEPIYTFRAHIGPVLSLAISSNGEQCFSGGIDATIQWWNMPSPSVDPYDTYEPNVLAGTLVGHTDAVWGLAYSGIKNQLLSCSADGTVRLWNPQEKLPCICTYNGDKKHGIPTSVDFIGCDPAHMVTSFNTGSAVIYDLETSQSLVILSSQVDSGLQSNNHINRVVSHPTLPVTITAHEDRHIKFFDNKTGKMIHSMVAHLDAVTSLAVDPNGIYLMSGSHDCSIRLWNLDSKTCVQEITAHRKKLDESIYDVAFHSSKAYIASAGADALAKVFV", "values": [
      {"measurement": "binding", "setting": "[1]", "result": "binds"}
    ]},
    {"binder": "SLMAP (endogenous) (protein, UniProt Q14BN4 1-828) MPSALAIFTCRPNSHPFQERHVYLDEPIKIGRSVARCRPAQNNATFDCKVLSRNHALVWFDHKTGKFYLQDTKSSNGTFINSQRLSRGSEESPPCEILSGDIIQFGVDVTENTRKVTHGCIVSTIKLFLPDGMEARLRSDVIHAPLPSPVDKVAANTPSMYSQELFQLSQYLQEALHREQMLEQKLATLQRLLAITQEASDTSWQALIDEDRLLSRLEVMGNQLQACSKNQTEDSLRKELIALQEDKHNYETTAKESLRRVLQEKIEVVRKLSEVERSLSNTEDECTHLKEMNERTQEELRELANKYNGAVNEIKDLSDKLKVAEGKQEEIQQKGQAEKKELQHKIDEMEEKEQELQAKIEALQADNDFTNERLTALQVRLEHLQEKTLKECSSLEHLLSKSGGDCTFIHQFIECQKKLIVEGHLTKAVEETKLSKENQTRAKESDFSDTLSPSKEKSSDDTTDAQMDEQDLNEPLAKVSLLKDDLQGAQSEIEAKQEIQHLRKELIEAQELARTSKQKCFELQALLEEERKAYRNQVEESTKQIQVLQAQLQRLHIDTENLREEKDSEITSTRDELLSARDEILLLHQAAAKVASERDTDIASLQEELKKVRAELERWRKAASEYEKEITSLQNSFQLRCQQCEDQQREEATRLQGELEKLRKEWNALETECHSLKRENVLLSSELQRQEKELHNSQKQSLELTSDLSILQMSRKELENQVGSLKEQHLRDSADLKTLLSKAENQAKDVQKEYEKTQTVLSELKLKFEMTEQEKQSITDELKQCKNNLKLLREKGNNKPWPWMPMLAALVAVTAIVLYVPGLARASP", "values": [
      {"measurement": "binding", "setting": "[1]", "result": "binds"}
    ]},
    {"binder": "HA-tagged SIKE1 Δ72–121 (protein, UniProt Q9BRV8) MSCTIEKILTDAKTLLERLREHDAAAESLVDQSAALHRRVAAMREAGTALPDQYQEDASDMKDMSKYKPHIVDAEPVLKAHQSHSAEIESQIDRICEMGEVMRKAVQVDDDQFCKIQEKLAQLELENKELRELLSISSESLQARKENSMDTASQAIK", "values": [
      {"measurement": "binding", "setting": "[2]", "result": "no binding"}
    ]},
    {"binder": "HA-tagged SIKE1 E96A/R109A (protein, UniProt Q9BRV8 1-207) MSCTIEKILTDAKTLLERLREHDAAAESLVDQSAALHRRVAAMREAGTALPDQYQEDASDMKDMSKYKPHILLSQENTQIRDLQQENRELWISLEAHQDALELIMSKYAKQMLQLMVAKKAVDAEPVLKAHQSHSAEIESQIDRICEMGEVMRKAVQVDDDQFCKIQEKLAQLELENKELRELLSISSESLQARKENSMDTASQAIK", "values": [
      {"measurement": "binding", "setting": "[2]", "result": "no binding"}
    ]},
    {"binder": "HA-tagged SIKE1 A100D/M105E (protein, UniProt Q9BRV8 1-207) MSCTIEKILTDAKTLLERLREHDAAAESLVDQSAALHRRVAAMREAGTALPDQYQEDASDMKDMSKYKPHILLSQENTQIRDLQQENRELWISLEEHQDDLELIESKYRKQMLQLMVAKKAVDAEPVLKAHQSHSAEIESQIDRICEMGEVMRKAVQVDDDQFCKIQEKLAQLELENKELRELLSISSESLQARKENSMDTASQAIK", "values": [
      {"measurement": "binding", "setting": "[2]", "result": "no binding"}
    ]},
    {"binder": "coiled-coil region (residues 161–800) of SLMAP (domain or fragment, UniProt Q14BN4 161-800) YSQELFQLSQYLQEALHREQMLEQKLATLQRLLAITQEASDTSWQALIDEDRLLSRLEVMGNQLQACSKNQTEDSLRKELIALQEDKHNYETTAKESLRRVLQEKIEVVRKLSEVERSLSNTEDECTHLKEMNERTQEELRELANKYNGAVNEIKDLSDKLKVAEGKQEEIQQKGQAEKKELQHKIDEMEEKEQELQAKIEALQADNDFTNERLTALQVRLEHLQEKTLKECSSLEHLLSKSGGDCTFIHQFIECQKKLIVEGHLTKAVEETKLSKENQTRAKESDFSDTLSPSKEKSSDDTTDAQMDEQDLNEPLAKVSLLKDDLQGAQSEIEAKQEIQHLRKELIEAQELARTSKQKCFELQALLEEERKAYRNQVEESTKQIQVLQAQLQRLHIDTENLREEKDSEITSTRDELLSARDEILLLHQAAAKVASERDTDIASLQEELKKVRAELERWRKAASEYEKEITSLQNSFQLRCQQCEDQQREEATRLQGELEKLRKEWNALETECHSLKRENVLLSSELQRQEKELHNSQKQSLELTSDLSILQMSRKELENQVGSLKEQHLRDSADLKTLLSKAENQAKDVQKEYEKTQTVLSELKLKFEMTEQEKQSITDELKQCKNNLKLLREKGNNKP", "values": [
      {"measurement": "binding", "setting": "[3]", "result": "no binding"}
    ]},
    {"binder": "HA-tagged SIKE1 Δ1–48 (protein, UniProt Q9BRV8) ALPDQYQEDASDMKDMSKYKPHILLSQENTQIRDLQQENRELWISLEEHQDALELIMSKYRKQMLQLMVAKKAVDAEPVLKAHQSHSAEIESQIDRICEMGEVMRKAVQVDDDQFCKIQEKLAQLELENKELRELLSISSESLQARKENSMDTASQAIK", "values": [
      {"measurement": "binding", "setting": "[4]", "result": "no binding"}
    ]},
    {"binder": "HA-tagged SIKE1 3LD (L15D/L19D/L36D) (protein, UniProt Q9BRV8 1-207) MSCTIEKILTDAKTDLERDREHDAAAESLVDQSAADHRRVAAMREAGTALPDQYQEDASDMKDMSKYKPHILLSQENTQIRDLQQENRELWISLEEHQDALELIMSKYRKQMLQLMVAKKAVDAEPVLKAHQSHSAEIESQIDRICEMGEVMRKAVQVDDDQFCKIQEKLAQLELENKELRELLSISSESLQARKENSMDTASQAIK", "values": [
      {"measurement": "binding", "setting": "[4]", "result": "no binding"}
    ]}
  ]
}
